# Data published in a collection of fitness landscapes (doi:10.1016/j.celrep.2020.107928).
# Over roughly 81,000 sequences, “one-hybrid fitness for binding NBS DNA” has its median near -0.1; the highest 2% begin near 0.36. The list shows a part of the results.
# B1: Caulobacter ParB omega fusion; a variant is named by its letters at X, in order, B8GW30 (parent)
# chain: MESVVVGEPGMSEGRRGLGRGLSALLGEVDAAPAQAPGEQLGGSREAPIEILQRNPDQPRRTFREEDLEDLSNSIREKGVLQPILVRPSPDTAGEYQIVAGERAWRAAQRAGLKTVPIMVRELDDLAVLEIGIIENVQRADLNVLEEALSYKVLMEKFERTQENIAQTIGKSXSHVANXMRLLXLPDEVQSYLVSGELTAXHARAIAAAADPVALAKQIIEGGLSVRETEALARKAPNLSAGKSKGGRPPRVKDTDTQALESDLSSVLGLDVSIDHRGSTGTLTITYATLEQLDDLCNRLTRGI
# Variants of: B1
# Test: one-hybrid fitness for binding NBS DNA (the Noc-binding site; scaled: cognate 1, non-cognate 0); higher = stronger binding
# Settings: with NBS DNA site
# Summary of the method: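 Bacterial one-hybrid selection in E. coli USO rpoZ- hisB- pyrF- with a HIS3 reporter carrying the site 19 bp from the promoter, screening Caulobacter ParB libraries with four specificity codons randomised (NNS). Cells grew 48 hours at 37°C on M9-minus-histidine plus 0.1 mM IPTG and 5 mM 3-AT. Plasmids before and after selection were Illumina-sequenced, three replicate libraries pooled, and variants under 10 reads dropped. Fitness is the log change in variant-to-wild-type read ratio, rescaled to cognate 1, non-cognate 0.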
row,Variant,one-hybrid fitness for binding NBS DNA
1,SAPR,≤ 0.2
2,NHLC,≤ 0.2
3,SDSW,≤ 0.2
4,EPRL,≤ 0.2
5,DMTL,≤ 0.2
6,PKWF,≤ 0.2
7,NVLG,≤ 0.2
8,PNNN,≤ 0.2
9,TSEP,≤ 0.2
10,RVRC,0.32
11,LNPI,≤ 0.2
12,SNLR,≤ 0.2
13,GAPS,≤ 0.2
14,VTRC,≤ 0.2
15,KREC,≤ 0.2
16,SGSM,≤ 0.2
17,YGAE,≤ 0.2
18,DPTQ,≤ 0.2
19,RGHV,≤ 0.2
20,WREV,≤ 0.2
21,CQEC,≤ 0.2
22,DWRG,≤ 0.2
23,VFEC,≤ 0.2
24,KKVC,≤ 0.2

row,Variant,one-hybrid fitness for binding NBS DNA
1,SGQC,≤ 0.2
2,EAMS,≤ 0.2
3,CLYM,≤ 0.2
4,LMWT,≤ 0.2
5,RHPL,≤ 0.2
6,REFP,≤ 0.2
7,LCNW,≤ 0.2
8,EPHL,≤ 0.2
9,CLVR,≤ 0.2
10,VPLF,≤ 0.2
11,YPLN,≤ 0.2
12,ETSR,≤ 0.2
13,PPEI,≤ 0.2
14,TSIR,≤ 0.2
15,WCSS,≤ 0.2
16,WAKA,≤ 0.2
17,KRQA,0.349
18,DGGR,≤ 0.2
19,QGPR,≤ 0.2
20,DPHG,≤ 0.2
21,WYIG,≤ 0.2
22,PLCS,≤ 0.2
23,KSLD,≤ 0.2
24,GDAG,≤ 0.2

row,Variant,one-hybrid fitness for binding NBS DNA
1,LTDC,≤ 0.2
2,RCVI,≤ 0.2
3,DSFM,≤ 0.2
4,RHNI,≤ 0.2
5,WSFA,≤ 0.2
6,DDNL,≤ 0.2
7,VMSH,≤ 0.2
8,HAEV,≤ 0.2
9,RQGK,≤ 0.2
10,MLAV,≤ 0.2
11,QVCA,≤ 0.2
12,GWTS,≤ 0.2
13,DCHF,≤ 0.2
14,VPTN,≤ 0.2
15,TMHV,≤ 0.2
16,TSYS,≤ 0.2
17,RYKI,≤ 0.2
18,AEGV,≤ 0.2
19,MNCG,≤ 0.2
20,HSYS,≤ 0.2
21,RSEC,≤ 0.2
22,TQNL,≤ 0.2
23,ESVC,≤ 0.2
24,DEKH,≤ 0.2

row,Variant,one-hybrid fitness for binding NBS DNA
1,PCLG,≤ 0.2
2,SMPS,≤ 0.2
3,AFKA,≤ 0.2
4,NRNW,≤ 0.2
5,DSRS,≤ 0.2
6,AVAA,≤ 0.2
7,HELI,≤ 0.2
8,MAVV,≤ 0.2
9,VNAV,≤ 0.2
10,FCPR,≤ 0.2
11,PNEF,≤ 0.2
12,ACAG,≤ 0.2
13,EHSF,≤ 0.2
14,ERCI,≤ 0.2
15,SDMG,≤ 0.2
16,GLKG,≤ 0.2
17,TSGP,≤ 0.2
18,QGPM,≤ 0.2
19,MPTS,≤ 0.2
20,HRDA,≤ 0.2
21,RLVK,≤ 0.2
22,YTYL,≤ 0.2
23,HFVM,≤ 0.2
24,DCRL,0.405

row,Variant,one-hybrid fitness for binding NBS DNA
1,HCAL,≤ 0.2
2,MPNC,≤ 0.2
3,NNSW,≤ 0.2
4,TKPY,≤ 0.2
5,GFKI,≤ 0.2
6,HDIS,≤ 0.2
7,NLYT,≤ 0.2
8,KRNA,0.384
9,RIIE,≤ 0.2
10,SSNR,≤ 0.2
11,NPLT,≤ 0.2
12,SMAM,≤ 0.2
13,AGNR,≤ 0.2
14,IKNV,≤ 0.2
15,GQNY,≤ 0.2
16,QSRA,0.516
17,STRT,≤ 0.2
18,FIWL,≤ 0.2
19,KAIS,≤ 0.2
20,ARPN,≤ 0.2
21,QLQC,≤ 0.2
22,WLSW,≤ 0.2
23,SPYW,≤ 0.2
24,QWIR,0.209

row,Variant,one-hybrid fitness for binding NBS DNA
1,KQAM,≤ 0.2
2,HIAT,≤ 0.2
3,TGAH,≤ 0.2
4,DADS,≤ 0.2
5,RVHG,≤ 0.2
6,IRKA,0.256
7,TSIS,≤ 0.2
8,AVTP,≤ 0.2
9,CYDC,≤ 0.2
10,NKNT,≤ 0.2
11,VITI,≤ 0.2
12,QRMN,0.295
13,NNCR,≤ 0.2
14,RMYC,≤ 0.2
15,SKVM,≤ 0.2
16,LSPT,≤ 0.2
17,GSLA,≤ 0.2
18,RATY,≤ 0.2
19,NPAS,≤ 0.2
20,GPPV,≤ 0.2
21,TQYV,≤ 0.2
22,NDDV,≤ 0.2
23,VKNC,≤ 0.2
24,SRQR,≤ 0.2

row,Variant,one-hybrid fitness for binding NBS DNA
1,EDLL,≤ 0.2
2,RPNR,≤ 0.2
3,PDVR,≤ 0.2
4,VINR,≤ 0.2
5,QRMG,0.329
6,DRLE,≤ 0.2
7,SLSS,≤ 0.2
8,EAKF,≤ 0.2
9,QASL,≤ 0.2
10,MPTC,≤ 0.2
11,RQVT,0.216
12,QKSQ,≤ 0.2
13,NRDT,≤ 0.2
14,PVVV,≤ 0.2
15,MCRS,≤ 0.2
16,FVMG,≤ 0.2
17,RSLW,≤ 0.2
18,RFGT,≤ 0.2
19,LVGC,≤ 0.2
20,VNSK,≤ 0.2
21,PSKY,≤ 0.2
22,NNGR,≤ 0.2
23,TTHT,≤ 0.2
24,ATPA,≤ 0.2

row,Variant,one-hybrid fitness for binding NBS DNA
1,KPNG,≤ 0.2
2,RSGQ,≤ 0.2
3,DDSR,≤ 0.2
4,GCYT,≤ 0.2
5,SASH,≤ 0.2
6,RVWC,≤ 0.2
7,YLRY,≤ 0.2
8,FSNR,≤ 0.2
9,YSVE,≤ 0.2
10,VNRG,≤ 0.2
11,TFTA,≤ 0.2
12,MPKC,≤ 0.2
13,WRSY,≤ 0.2
14,SRHR,≤ 0.2
15,HFDC,≤ 0.2
16,GVHA,≤ 0.2
17,RQMH,≤ 0.2
18,PPNT,≤ 0.2
19,RGDA,≤ 0.2
20,VFTC,≤ 0.2
21,PMGL,≤ 0.2
22,RGKV,≤ 0.2
23,GGRY,≤ 0.2
24,RHIQ,≤ 0.2

row,Variant,one-hybrid fitness for binding NBS DNA
1,NRVV,≤ 0.2
2,PDTS,≤ 0.2
3,DWIE,≤ 0.2
4,CTCH,≤ 0.2
5,KNPP,≤ 0.2
6,HRAL,≤ 0.2
7,KKMC,≤ 0.2
8,AAFY,≤ 0.2
9,RYFN,≤ 0.2
10,SREC,≤ 0.2
11,KTGW,≤ 0.2
12,SASV,≤ 0.2
13,SHIG,≤ 0.2
14,QHAH,≤ 0.2
15,RCLP,≤ 0.2
16,LLWS,≤ 0.2
17,PNWR,≤ 0.2
18,PWQS,≤ 0.2
19,PVHI,≤ 0.2
20,SLPE,≤ 0.2
21,APPQ,≤ 0.2
22,ECKN,≤ 0.2
23,WRIS,≤ 0.2
24,AARI,≤ 0.2

row,Variant,one-hybrid fitness for binding NBS DNA
1,DLHS,≤ 0.2
2,WKDV,≤ 0.2
3,TPMT,≤ 0.2
4,DVAI,≤ 0.2
5,QFYV,≤ 0.2
6,EDRL,≤ 0.2
7,GHQA,≤ 0.2
8,QHNF,≤ 0.2
9,AHLC,≤ 0.2
10,NVAM,≤ 0.2
11,PTDT,≤ 0.2
12,YWSL,≤ 0.2
13,RALQ,≤ 0.2
14,CLEW,≤ 0.2
15,FPVA,≤ 0.2
16,VEGM,≤ 0.2
17,RGCV,≤ 0.2
18,VQVC,≤ 0.2
19,PFTI,≤ 0.2
20,REPV,≤ 0.2
21,HWRI,≤ 0.2
22,EPSF,≤ 0.2
23,ATAD,≤ 0.2
24,QASR,0.482

row,Variant,one-hybrid fitness for binding NBS DNA
1,VEHG,≤ 0.2
2,IKVY,≤ 0.2
3,EADS,≤ 0.2
4,LYWS,≤ 0.2
5,PLPP,≤ 0.2
6,HLPS,≤ 0.2
7,VSHP,≤ 0.2
8,QIMS,≤ 0.2
9,VLRG,≤ 0.2
10,LAPT,≤ 0.2
11,WGFG,≤ 0.2
12,PVIS,≤ 0.2
13,RQRT,0.615
14,KHRR,0.367
15,TPQL,≤ 0.2
16,IRNC,≤ 0.2
17,PVNS,≤ 0.2
18,EKKR,0.216
19,CRPM,≤ 0.2
20,AITC,≤ 0.2
21,NSHS,≤ 0.2
22,NGLL,≤ 0.2
23,SMEV,≤ 0.2
24,ETHT,≤ 0.2

row,Variant,one-hybrid fitness for binding NBS DNA
1,QLGH,≤ 0.2
2,CVKS,≤ 0.2
3,NKYF,≤ 0.2
4,NLRV,≤ 0.2
5,MTRG,≤ 0.2
6,PWTY,≤ 0.2
7,CCHS,≤ 0.2
8,RMFV,≤ 0.2
9,NWHG,≤ 0.2
10,WTDT,≤ 0.2
11,GYPA,≤ 0.2
12,DLGV,≤ 0.2
13,NKVQ,≤ 0.2
14,CRDV,≤ 0.2
15,EPTR,≤ 0.2
16,CPAA,≤ 0.2
17,CSHC,≤ 0.2
18,GSFS,≤ 0.2
19,DIRT,≤ 0.2
20,KRGM,≤ 0.2
21,MVIP,≤ 0.2
22,STAL,≤ 0.2
23,TSTK,≤ 0.2
24,QHHL,≤ 0.2

row,Variant,one-hybrid fitness for binding NBS DNA
1,WESR,≤ 0.2
2,DKAY,≤ 0.2
3,CLAA,≤ 0.2
4,PWPD,≤ 0.2
5,LYRV,≤ 0.2
6,KGTS,≤ 0.2
7,SLRF,≤ 0.2
8,NRCG,≤ 0.2
9,RHAW,≤ 0.2
10,TLDI,≤ 0.2
11,NLDG,≤ 0.2
12,IWRR,≤ 0.2
13,QPKS,≤ 0.2
14,GHNV,≤ 0.2
15,KRCA,0.291
16,VRER,≤ 0.2
17,QIDM,≤ 0.2
18,SWLS,≤ 0.2
